# Test results reported in PubChem BioAssay AID1460 (National Center for Advancing Translational Sciences (NCATS), 2008).
# Among all 270,000 compounds or so, about 5,800 (2.1%) were called active. This list was built around the results that the source calls inconclusive (neither active nor inactive); the mix of calls is not that of the screen. Calls follow the shape of the dose curve; as a rule, active = well fitted inhibition curve with a large enough effect; inconclusive = small, poorly fitted or top-dose-only effect; inactive = flat fitted curve, though single readings scatter. Potencies beside an inconclusive call are fits to weak or partial responses and may not hold up.
# Target: Microtubule-associated protein tau (Homo sapiens) (UniProt P10636)
# Assay: qHTS for Inhibitors of Tau Fibril Formation, Thioflavin T Binding; also: nearly all actives have a fitted effect of over 55% in size
# Details: recombinant tau K18 P301L (four-repeat tau fragment), heparin-induced fibrillization, ThT fluorescence; series mostly up to 57.4 µM
# Procedure, shortened: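 Heparin-induced (20 uM) aggregation of recombinant human K18 P301L tau, 15 uM unlabeled with 0.24 uM labeled, pH 7 acetate buffer, 6 hr at 37 C with compound. Fibrils quantified by 30 uM ThT fluorescence after 1 hr ambient incubation.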
# Potency is read from the fitted curve at half-maximal effect; tags tell the direction and shape of the fitted curve.
# UniProt P10636, sequence (P10636 whole entry, looked up): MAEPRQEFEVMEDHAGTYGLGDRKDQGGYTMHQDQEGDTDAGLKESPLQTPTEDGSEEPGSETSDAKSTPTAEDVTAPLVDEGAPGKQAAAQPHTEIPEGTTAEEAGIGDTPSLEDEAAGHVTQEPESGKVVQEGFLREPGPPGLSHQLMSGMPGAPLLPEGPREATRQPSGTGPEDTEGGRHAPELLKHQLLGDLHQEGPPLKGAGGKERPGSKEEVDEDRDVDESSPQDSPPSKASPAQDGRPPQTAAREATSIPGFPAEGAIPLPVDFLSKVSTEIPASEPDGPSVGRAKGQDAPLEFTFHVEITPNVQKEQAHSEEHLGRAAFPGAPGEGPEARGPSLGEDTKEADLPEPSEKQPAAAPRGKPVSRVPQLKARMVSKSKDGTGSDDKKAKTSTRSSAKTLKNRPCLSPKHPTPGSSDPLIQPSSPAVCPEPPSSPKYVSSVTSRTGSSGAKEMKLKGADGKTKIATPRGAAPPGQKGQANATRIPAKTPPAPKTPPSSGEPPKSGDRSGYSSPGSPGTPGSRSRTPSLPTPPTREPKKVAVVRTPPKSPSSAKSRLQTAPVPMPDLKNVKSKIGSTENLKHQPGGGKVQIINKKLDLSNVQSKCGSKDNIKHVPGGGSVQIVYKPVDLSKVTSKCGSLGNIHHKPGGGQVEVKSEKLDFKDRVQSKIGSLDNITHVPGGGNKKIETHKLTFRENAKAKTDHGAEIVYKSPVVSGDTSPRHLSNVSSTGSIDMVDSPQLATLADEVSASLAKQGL
row,Structure (SMILES),Potency
1,CCN1CC(CN(C)Cc2cn(-c3cccc(C)c3)nc2-c2cccc(F)c2)CC1=O (configuration not stated),"inconclusive: 14.1 µM [inhibitor, partial curve]"
2,COc1ccc(Br)cc1C(=O)Nc1ccc(N2CCN(S(C)(=O)=O)CC2)cc1,"inconclusive: 7.08 µM [inhibitor, partial curve]"
3,C[C@H](N)CCCP(=O)(O)O,inactive
4,CCCCC/C=C\C[C@@H](O)/C=C/C=C/C=C/[C@@H](O)CCCC(=O)O,inactive
5,COc1cccc(-c2noc(COc3ccccc3Cl)n2)c1,"inconclusive: 15.8 µM [inhibitor, partial curve]"
6,Cc1ccc(N=Cc2c(O)ccc3ccccc23)cc1F,"inconclusive: 39.8 µM [inhibitor, single point]"
7,CN(C)c1ccc(/C=C(/C(=O)c2ccc(Cl)cc2Cl)n2cncn2)cc1,"inconclusive: 15.8 µM [inhibitor, partial curve]"
8,COc1cc2c(cc1OC)C(c1ccc(-c3ccc(Cl)cc3Cl)o1)=NCC2,"inconclusive: 22.4 µM [inhibitor, partial curve]"
9,C=C(C)Cn1c(SCC(=O)N/N=C/c2c(O)ccc3ccccc23)nc2ccccc2c1=O,inactive
10,CC(=O)N[C@@H](Cc1c[nH]c2ccccc12)C(=O)OCC(=O)Nc1ccc(S(=O)(=O)N(C)C)cc1,inactive
11,COc1ccc(-c2onc(C)c2C)cc1S(=O)(=O)NCC1CCN(Cc2cc(C)ccc2C)CC1,inactive
12,CCCSCC(=O)Nc1ncc2c(n1)-c1ccccc1CC2,"inconclusive: 22.4 µM [inhibitor, single point]"
13,CCN1C(=O)/C(=C/c2ccc(C)s2)NC1=S,"inconclusive: 12.6 µM [inhibitor, partial curve]"
14,CCOc1cc(C2c3c(-c4ccccc4O)n[nH]c3C(=O)N2Cc2cccnc2)ccc1O (configuration not stated),inactive
15,CSc1ccc(/C=C2/C(C)=C(CC(=O)O)c3cc(F)ccc32)cc1,"inconclusive: 12.6 µM [inhibitor, partial curve]"
16,Cc1ccc(NC(=O)c2sc(-n3nc(C)c(Cc4ccc5c(c4)OCO5)c3C)nc2C)cc1C,inactive
17,CCC(C(=O)NCc1ccccc1Cl)n1nc(C)c2sc3ccccc3c2c1=O (configuration not stated),inactive
18,O=C1CSC(=S)N1N=C1CCCCCC1,inactive
19,Cc1cccc(NC(=O)c2sc3nc(-c4ccccc4)cn3c2C)n1,"inconclusive: 3.16 µM [inhibitor, full curve]"
20,COc1ccc(C(=O)Nc2noc3ccccc23)cc1,"inconclusive: 2 µM [inhibitor, full curve]"
21,CC(C)c1ccc(NCCC(=O)c2cccs2)cc1,"inconclusive: 28.2 µM [inhibitor, single point]"

row,Structure (SMILES),Potency
1,Cc1ccc(Cc2cnc(NC(=O)/C(C#N)=C/c3ccc(-c4ccccc4[N+](=O)[O-])o3)s2)cc1,"inconclusive: 3.98 µM [inhibitor, full curve]"
2,CC(=O)c1cccc(NC(=O)c2ccc(Br)o2)c1,"inconclusive: 20 µM [inhibitor, single point]"
3,CCCC1=NN(c2ccc([N+](=O)[O-])cc2)C(=O)/C1=C\N(C)C,"inconclusive: 14.1 µM [inhibitor, partial curve]"
4,S=c1[nH]nc(-c2ccc(Cl)cc2)n1/N=C/c1ccco1,"inconclusive: 5.01 µM [inhibitor, partial curve]"
5,Cc1nn2c(C)c(C(=O)NCC(C)c3ccccc3)cnc2c1-c1ccccc1 (configuration not stated),"inconclusive: 15.8 µM [inhibitor, partial curve, poor fit]"
6,CC(=O)/C(N=Nc1ccc2c(c1)OCO2)=C(\C)O,active: 3.55 µM
7,O=C(N/N=C/c1ccc([N+](=O)[O-])cc1)c1cc(C2CC2)nc2ccccc12,"inconclusive: 20 µM [inhibitor, partial curve]"
8,Cc1ccc(S(=O)(=O)Nc2ccc(N3CCOCC3)nc2)cc1,inactive
9,CCOc1ccc(N2CSC(=S)N(c3ccc(OCC)cc3)C2)cc1,"inconclusive: 14.1 µM [inhibitor, partial curve, poor fit]"
10,COC(=O)/C(=C/c1cn(C(C)=O)c2ccccc12)[N+](=O)[O-],"inconclusive: 39.8 µM [inhibitor, single point]"
11,O=[N+]([O-])c1ccccc1-c1ccc(C(=S)N2CCN(c3ccccc3)CC2)o1,active: 11.2 µM
12,Cn1c(=O)c2c(ncn2CC(=O)N2CCN(c3ccc([N+](=O)[O-])cc3)CC2)n(C)c1=O,"inconclusive: 14.1 µM [inhibitor, partial curve]"
13,COc1ccc(S(=O)(=O)N(C(C)=O)c2ccc(OC(C)=O)c3ccccc23)cc1[N+](=O)[O-],"inconclusive: 28.2 µM [inhibitor, partial curve]"
14,COc1ccc(NC(=O)CSc2nc(-c3ccco3)nc3cc(=O)[nH]n23)cc1,"inconclusive: 15.8 µM [inhibitor, partial curve]"
15,COc1ccc(-c2csc(N(CC3CCCO3)C(=O)c3cccs3)n2)cc1 (configuration not stated),"inconclusive: 31.6 µM [inhibitor, partial curve, poor fit]"
16,O=C(Cn1nnc(-c2ccccc2NC(=O)c2ccccc2)n1)Nc1ccc2c(c1)OCCO2,"inconclusive: 28.2 µM [activator, partial curve]"
17,O=[N+]([O-])c1ccc(C2(O)CN(c3ccccc3)C3=[N+]2CCS3)cc1 (configuration not stated),"inconclusive: 3.55 µM [inhibitor, full curve]"
18,O=C(Nc1ccc2oc(-c3ccccc3F)nc2c1)c1ccc2c(c1)OCCO2,"inconclusive: 0.631 µM [inhibitor, full curve]"
19,O=C(COC(=O)c1ccccc1[N+](=O)[O-])Nc1cc(S(=O)(=O)N2CCOCC2)ccc1N1CCCC1,inactive
20,Brc1ccc(-c2csc(/N=C/N3CCCC3)n2)cc1,"inconclusive: 25.1 µM [inhibitor, partial curve]"
21,CCCOc1ccc(C2c3c(oc4cc(C)c(C)cc4c3=O)C(=O)N2CCCN2CCOCC2)cc1 (configuration not stated),"inconclusive: 25.1 µM [inhibitor, partial curve, poor fit]"
